Experimental data as given in PubChem BioAssay AID686979 (National Center for Advancing Translational Sciences (NCATS), 2013).
Values joined by “and” are separate entries in the source; they are usually repeats but may differ in a detail not shown here. Identical values can stand only once. Hit rate of the full screen: of about 420,000 compounds, about 50,000 (12%) were called active. Inconclusive means that the source gave no clear call. Such entries were picked first, then a sample of the others. Calls come from the whole dose curve; as a rule, active = well fitted inhibition curve with a large enough effect; inconclusive = small, poorly fitted or top-dose-only effect; inactive = flat fitted curve, though single readings scatter. Where the call is inconclusive, the potency comes from a doubtful curve fit.

assay: qHTS for Inhibitors of human tyrosyl-DNA phosphodiesterase 1 (TDP1): qHTS in cells in presence of CPT; conditions: chicken DT40 Tdp1-/-;hTDP1 cells + 20 nM CPT, ATP luminescence, 48 h; series mostly up to 46.2 µM; note: nearly all actives have a fitted effect of over 55% in size
Outline: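 Chicken DT40 Tdp1-/- cells complemented with human TDP1, 400 cells/well, exposed to compounds plus 20 nM camptothecin for at least 48 h at 37 C; viability read as ATP content by CellTiter-Glo luminescence.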
Potency is the fitted concentration of half-maximal effect; tags give direction and shape of the fitted curve.

With Cc1ccc(Nc2nnc(SCC(=O)Nc3ncc(S(=O)(=O)c4ccc([N+](=O)[O-])cc4)s3)s2)cc1 as the compound, how does the Potency read?
The Potency was inconclusive: 18.4 µM [inhibitor, single point].

For Cc1nn(C(C)C(=O)NCCCN2CCCCCC2)c(=O)c2c1sc1ccccc12 (stereo unspecified), which Potency is on record?
Its Potency is inconclusive: 29.1 µM [inhibitor, single point].

For CC(C)CC(NS(=O)(=O)c1cc(C(=O)O)ccc1Cl)C(=O)O (stereo unspecified), which Potency is on record?
Its Potency is “inactive”.

For CCCc1nc2c3ccccc3ccn2c1Cc1ccccc1C(F)(F)F, which Potency is on record?
Its Potency is inconclusive: 29.1 µM [inhibitor, single point].

Which Potency does the source give for Cc1ccnc(NC(=O)C2CCN(S(=O)(=O)c3ccc4c(c3)CC(C)N4C(=O)C3CCC3)CC2)c1 (stereo unspecified) here?
Its Potency is inconclusive: 29.1 µM [inhibitor, single point].

Which Potency does the source give for CCc1ccc(CNCc2c(C(=O)O)n(Cc3ccc(F)cc3Cl)c3cc(OC)ccc23)cc1 here?
The Potency was active: 11.6 µM.

Which Potency does the source give for CCC(C)(C)NC(=O)C1c2ccccc2Oc2ccccc21 here?
The Potency was “inactive”.

With Cc1cc(C)c(C(=O)/C=C/c2ccc3c(c2)OCO3)c(=O)[nH]1 as the compound, how does the Potency read?
Its Potency is inconclusive: 16.4 µM [inhibitor, single point].

With Cc1[nH]c(C)c(S(=O)(=O)NCC(C)c2ccccc2)c1C(=O)N1CCCCC1 (stereo unspecified) as the compound, how does the Potency read?
The Potency was “inactive”.

For CCC(C)NC(=O)c1cc2c(=O)n3cccc(C)c3nc2s1 (stereo unspecified), which Potency is on record?
The Potency was “inactive”.

For COc1ccc(C(=O)NC(C)c2ccc(-n3ccnc3)cc2)c(OC)c1 (stereo unspecified), which Potency is on record?
Its Potency is inconclusive: 29.1 µM [inhibitor, partial curve, poor fit].

For CSc1c[n+]2c(n1C)CCC2, which Potency is on record?
Its Potency is “inactive”.

Which Potency does the source give for COc1cc2ccccc2cc1C(=O)N1CCN(c2nc3ccc(F)cc3s2)CC1 here?
The Potency was active: 16.4 µM.

For Cc1cccc(CNc2ncnc3ccc(-c4ccc(C(=O)N(C)C)cc4)cc23)c1, which Potency is on record?
The Potency was inconclusive: 29.1 µM [inhibitor, single point].

Which Potency does the source give for CCN(CC)S(=O)(=O)c1ccc(NC2c3ccccc3C(=O)N2Cc2ccco2)cc1 (stereo unspecified) here?
Its Potency is active: 20.6 µM.

Which Potency does the source give for COc1ccc(-n2nc(C(=O)NCC(=O)NCC3CCCO3)c3ccccc3c2=O)cc1Cl (stereo unspecified) here?
Its Potency is “inactive”.

Which Potency does the source give for CCC(Sc1nc2ccccc2c2nc(-c3ccccc3)nn12)C(=O)Nc1cccc(OC)c1 (stereo unspecified) here?
Its Potency is inconclusive: 25.9 µM [inhibitor, single point].

For Cc1occc1-c1nnc(SCC(=O)Nc2nc(C(C)(C)C)cs2)o1, which Potency is on record?
The Potency was active: 9.2 µM.

For CN(C)C(CN1C(=O)C2CC=CCC2C1=O)c1cn(C)c2ccccc12 (stereo unspecified), which Potency is on record?
The Potency was “inactive”.

With Cc1ccc(-c2nc3cc(C)c(Br)c(C)n3c2Cc2cccc(Cl)c2)cc1 as the compound, how does the Potency read?
The Potency was “inactive”.

With CCC(=O)N1CCc2cc(S(=O)(=O)N3CCN(c4ccccn4)CC3)ccc21 as the compound, how does the Potency read?
The Potency was inconclusive: 10.3 µM [inhibitor, partial curve].

Which Potency does the source give for Cc1cc(C)cc(NC(=O)N2CCCC2C(=O)Nc2ccc(-n3cnnn3)cc2)c1 (stereo unspecified) here?
The Potency was inconclusive: 23.1 µM [inhibitor, partial curve].

Which Potency does the source give for Cc1c(Cl)cccc1NC(=O)CCN1C(=O)c2ccccc2Sc2ncccc21 here?
Its Potency is inconclusive: 29.1 µM [inhibitor, single point].

Which Potency does the source give for CC(C)n1c(CSCc2ccc(Cl)cc2Cl)n[nH]c1=S here?
The Potency was “inactive”.

With O=C(Cc1ccccc1)Nc1ccccc1C(=O)N1CCCCCC1 as the compound, how does the Potency read?
Its Potency is inconclusive: 25.9 µM [inhibitor, partial curve, poor fit].

For CCN1C(=O)[C@H]2[C@@H](c3ccc(Cl)cc3)N3C(=O)CN(CCOC)C(=O)[C@@]3(Cc3ccccc3)[C@H]2C1=O, which Potency is on record?
The Potency was “inactive”.

With Cc1ccc2oc(=O)c3cnn(CC(=O)N4CCN(c5ccccc5)CC4)c3c2c1 as the compound, how does the Potency read?
Its Potency is inconclusive: 29.1 µM [inhibitor, single point] and inconclusive: 8.2 µM [inhibitor, partial curve].

For CN1CCC[C@@H]1CCNC(=O)c1cccc2c1C(=O)c1ccc(N3CCCC3)cc1S2(=O)=O, which Potency is on record?
The Potency was inconclusive: 25.9 µM [inhibitor, single point].

For CC(C)CCN1C(N(C)C)=NC[C@@H]1C, which Potency is on record?
Its Potency is “inactive”.

With COC(=O)c1c(NC(=O)CS(=O)(=O)c2ccc(C)cc2)sc2c1CCCC2 as the compound, how does the Potency read?
Its Potency is inconclusive: 29.1 µM [inhibitor, single point].

For COc1ccc(-c2cc(NC=O)c3ncc(-c4cccc(C(=O)NCCN(C)C)c4)n3c2)cn1, which Potency is on record?
The Potency was inconclusive: 29.1 µM [inhibitor, single point].

For COc1ccc(CCNC(=O)c2cc3c(=O)n4ccccc4nc3n(CCN3CCOCC3)c2=N)cc1, which Potency is on record?
The Potency was active: 3.66 µM.

With O=C1CC(c2ccc(O)cc2)Oc2cc(O)ccc21 (stereo unspecified) as the compound, how does the Potency read?
The Potency was “inactive”.

With O=C(NCCOc1ccccc1)c1cc(C(=O)NCCOc2ccccc2)cc([N+](=O)[O-])c1 as the compound, how does the Potency read?
The Potency was inconclusive: 20.6 µM [inhibitor, single point].

For CC1(C)OC(=O)C2(Cc3cc(C(F)(F)F)ccc3N3CCCCC32)C(=O)O1 (stereo unspecified), which Potency is on record?
The Potency was “inactive”.

With O=C(Cc1cccnc1)N[C@@H]1CC[C@H](CCn2cc(Cc3ccccc3)nn2)O[C@@H]1CO as the compound, how does the Potency read?
Its Potency is “inactive”.

Which Potency does the source give for c1ccc2c(c1)CCCN2Cc1nnc2n1CCCCC2 here?
Its Potency is inconclusive: 0.0065 µM [inhibitor, full curve, poor fit].

Which Potency does the source give for CNC(=O)COc1ccc2oc3c(c2c1)CCCC3 here?
The Potency was “inactive”.

For CCN(CC)C(=O)c1cc(-c2ccc(Cl)cc2)on1, which Potency is on record?
Its Potency is “inactive”.

With Cc1ccc(-c2cc(C(=O)N/N=C/c3ccoc3)c3ccccc3n2)cc1 as the compound, how does the Potency read?
The Potency was inconclusive: 16.4 µM [inhibitor, single point].

With O=C(Nc1cccc(Cl)c1)c1ccc(F)c(S(=O)(=O)N2CCC3(CC2)OCCO3)c1 as the compound, how does the Potency read?
The Potency was active: 14.6 µM.

For CCN(C(=O)Cn1nnc2sc(-c3ccccc3)cc2c1=O)c1cccc(C)c1, which Potency is on record?
The Potency was active: 16.4 µM.

With Cc1cc(NC(=O)CCNS(=O)(=O)c2ccc3c(c2)oc(=O)n3C)ccc1Br as the compound, how does the Potency read?
Its Potency is inconclusive: 18.4 µM [inhibitor, single point].

For CC1CCN(C(=S)c2ccc([N+](=O)[O-])cc2)CC1, which Potency is on record?
Its Potency is inconclusive: 29.1 µM [inhibitor, single point].

Which Potency does the source give for c1ccc(-c2ccc3c(c2)NCCN3)cc1 here?
The Potency was inconclusive: 32.6 µM [inhibitor, partial curve, poor fit].

Which Potency does the source give for COC(=O)C1=C(CS(=O)(=O)c2ccc(OC)c(OC)c2)NC(=O)NC1c1ccc(O)c(OC)c1 (stereo unspecified) here?
Its Potency is “inactive”.

Which Potency does the source give for CCn1c(CCNC(=O)c2ccc(OC)cc2)nnc1SCc1ccc(Cl)cc1Cl here?
Its Potency is inconclusive: 23.1 µM [inhibitor, partial curve].

With O=C(C1CCN(CCCc2ccccc2)CC1)N(CCc1ccccc1)Cc1ccccc1 as the compound, how does the Potency read?
The Potency was inconclusive: 20.6 µM [inhibitor, single point].

With CC1=NN(C(=O)Cn2ccc([N+](=O)[O-])n2)C(O)(C(F)(F)F)C1 (stereo unspecified) as the compound, how does the Potency read?
Its Potency is active: 5.8 µM.

With CC#CCOC(=O)C1=CCCN(C)C1 as the compound, how does the Potency read?
Its Potency is inconclusive: 29.1 µM [inhibitor, single point].

For Cc1ccccc1C(=O)N1CCC(C(=O)N(C)CCOc2ccccc2)CC1, which Potency is on record?
Its Potency is inconclusive: 20.6 µM [inhibitor, single point].

With CC1(C(=O)N2CCCCC2)CCN1C(=O)c1ccccc1CCc1ccccc1 (stereo unspecified) as the compound, how does the Potency read?
Its Potency is inconclusive: 23.1 µM [inhibitor, single point].

Which Potency does the source give for c1ccc(-c2csc(Nc3cccnc3)n2)nc1 here?
The Potency was inconclusive: 29.1 µM [inhibitor, single point].

Which Potency does the source give for COc1ccc(NC(=O)CN(C)C(=O)C2CC(=O)N(CCc3ccc(OC)c(OC)c3)C2)cc1 (stereo unspecified) here?
Its Potency is inconclusive: 2.91 µM [inhibitor, full curve].

Which Potency does the source give for Cc1nc2ccccc2c2nc3ccccc3n12 here?
The Potency was inconclusive: 18.4 µM [inhibitor, single point].

With Cc1[nH]nc(-c2ccc(O)c(C)c2O)c1-c1cnn(-c2ccccc2)c1 as the compound, how does the Potency read?
Its Potency is “inactive”.

With CCC1CN(C(=O)Nc2cccc3c2CCCC3)c2ccccc2O1 (stereo unspecified) as the compound, how does the Potency read?
The Potency was inconclusive: 25.9 µM [inhibitor, single point].

For O=c1c(CN2CCN(c3ccccn3)CC2)coc2ccccc12, which Potency is on record?
The Potency was “inactive”.

For COc1ccc(-c2nc(-c3ccncc3)no2)cc1, which Potency is on record?
Its Potency is “inactive”.

For COc1ccc(S(=O)(=O)N2CCC(C(=O)NCCCN3CCOCC3)CC2)cc1, which Potency is on record?
The Potency was “inactive”.

For Cc1cccc(CNc2ncncc2-c2ccccc2Cl)c1, which Potency is on record?
The Potency was “inactive”.

With CCOc1ccc(Br)cc1C1C(C(=O)OC)=C(N)Oc2cc(N(C)C)ccc21 (stereo unspecified) as the compound, how does the Potency read?
Its Potency is active: 5.17 µM.

With COc1cc(CN2CCCC(N3CCN(c4ccccc4C)CC3)C2)ccc1O (stereo unspecified) as the compound, how does the Potency read?
Its Potency is active: 13 µM.

For COc1ccc(S(=O)(=O)Nc2c(NC3CCCCC3)c3ccccc3oc2=O)cc1, which Potency is on record?
The Potency was inconclusive: 23.1 µM [inhibitor, single point].

For Cc1c(C(=O)Nc2ccccc2)sc2nc3n(c(=O)c12)CCCCC3, which Potency is on record?
The Potency was inconclusive: 23.1 µM [inhibitor, single point].

Which Potency does the source give for CC(C)C[C@@H]1COc2cccc(N3CCN(Cc4ccccc4F)CC3)c2S(=O)(=O)N1 here?
Its Potency is inconclusive: 29.1 µM [inhibitor, single point].

Which Potency does the source give for COC(=O)CN1CCN(C(=O)c2ccc(F)cc2)c2ccccc2C1 here?
Its Potency is “inactive”.

Which Potency does the source give for COC(=O)c1cnn2c(C)c(Cc3c(C)cc(C)cc3C)c(C)nc12 here?
The Potency was inconclusive: 5.8 µM [inhibitor, partial curve].

For O=C(NCCC(c1ccccc1)c1ccco1)c1cccs1 (stereo unspecified), which Potency is on record?
The Potency was inconclusive: 18.4 µM [inhibitor, partial curve].

With O=C(Nc1nnc(S(=O)(=O)N2CCCc3ccccc32)s1)c1ccccc1 as the compound, how does the Potency read?
Its Potency is inconclusive: 14.6 µM [inhibitor, single point].

For C/C(=N\NC(=O)c1cc(-c2ccncc2)nc2ccccc12)c1ccc(N2CCOCC2)cc1, which Potency is on record?
Its Potency is inconclusive: 32.6 µM [inhibitor, single point].
